Measurements as given in the supplement of paper PMC8728848.
Some of the results follow.

Tests used:
Experiment in all cases: glycan array binding signal (z-score within array); higher = stronger binding
Conditions in all cases: glycan notation: IUPAC condensed, linker removed
[1] = target: GlcNAc(a1-3)Gal(b1-4)GlcNAc
Procedure, shortened: (§1)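 Glycan array binding is given as a within-array Z-score, which can be read as non-binding when negative. The arrays, 3228 of them, came from the Consortium for Functional Glycomics database and were retained only where the protein sequence was available. Z-scores were averaged across arrays of the same protein sequence at different concentrations or buffers and across linkers.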

[2] = target: GlcNAc(a1-4)Gal(b1-3)GlcNAc
Procedure, shortened: as §1

[3] = target: GlcNAc(a1-4)Gal(b1-4)GalNAc
Procedure, shortened: as §1

[4] = target: GlcNAc(a1-4)Gal(b1-4)GlcNAc
Procedure, shortened: as §1

[5] = target: GlcNAc(a1-4)Gal(b1-4)GlcNAc(b1-3)Gal(b1-4)Glc
Procedure, shortened: as §1

[6] = target: GlcNAc(a1-4)Gal(b1-4)GlcNAc(b1-3)Gal(b1-4)GlcNAc
Procedure, shortened: as §1

[7] = target: GlcNAc(a1-4)Gal(b1-4)GlcNAc(b1-3)Gal(b1-4)GlcNAc(b1-3)Gal(b1-4)GlcNAc
Procedure, shortened: as §1

[8] = target: GlcNAc(a1-4)Gal(b1-4)GlcNAc(b1-3)Gal(b1-4)[Fuc(a1-3)]GlcNAc(b1-3)Gal(b1-4)[Fuc(a1-3)]GlcNAc
Procedure, shortened: as §1

[9] = target: GlcNAc(a1-6)Gal(b1-4)GlcNAc
Procedure, shortened: as §1

[10] = target: GlcNAc(b1-2)Gal(b1-3)GalNAc
Procedure, shortened: as §1

[11] = target: GlcNAc(b1-2)Man(a1-3)[GlcNAc(b1-2)Man(a1-6)]Man(b1-4)GlcNAc(b1-4)GlcNAc
Procedure, shortened: as §1

[12] = target: GlcNAc(b1-2)Man(a1-3)[GlcNAc(b1-2)Man(a1-6)]Man(b1-4)GlcNAc(b1-4)[Fuc(a1-6)]GlcNAc
Procedure, shortened: as §1

[13] = target: GlcNAc(b1-2)Man(a1-3)[GlcNAc(b1-4)][GlcNAc(b1-2)Man(a1-6)]Man(b1-4)GlcNAc(b1-4)GlcNAc
Procedure, shortened: as §1

[14] = target: GlcNAc(b1-2)Man(a1-3)[GlcNAc(b1-4)][GlcNAc(b1-2)Man(a1-6)]Man(b1-4)GlcNAc(b1-4)[Fuc(a1-6)]GlcNAc
Procedure, shortened: as §1

[15] = target: GlcNAc(b1-2)[GlcNAc(b1-4)]Man(a1-3)[GlcNAc(b1-2)Man(a1-6)]Man(b1-4)GlcNAc(b1-4)GlcNAc
Procedure, shortened: as §1

[16] = target: GlcNAc(b1-2)[GlcNAc(b1-4)]Man(a1-3)[GlcNAc(b1-4)][GlcNAc(b1-2)Man(a1-6)]Man(b1-4)GlcNAc(b1-4)GlcNAc
Procedure, shortened: as §1

[17] = target: GlcNAc(b1-2)[GlcNAc(b1-4)]Man(a1-3)[GlcNAc(b1-4)][GlcNAc(b1-2)[GlcNAc(b1-6)]Man(a1-6)]Man(b1-4)GlcNAc(b1-4)GlcNAc
Procedure, shortened: as §1

[18] = target: GlcNAc(b1-2)[GlcNAc(b1-4)]Man(a1-3)[GlcNAc(b1-4)][GlcNAc(b1-2)[GlcNAc(b1-6)]Man(a1-6)]Man(b1-4)GlcNAc(b1-4)[Fuc(a1-6)]GlcNAc
Procedure, shortened: as §1

[19] = target: GlcNAc(b1-2)[GlcNAc(b1-6)]Man(a1-6)[GlcNAc(b1-2)Man(a1-3)]Man(b1-4)GlcNAc(b1-4)GlcNAc
Procedure, shortened: as §1

[20] = target: GlcNAc(b1-2)[GlcNAc(b1-6)]Man(a1-6)[GlcNAc(b1-2)Man(a1-3)]Man(b1-4)GlcNAc(b1-4)[Fuc(a1-6)]GlcNAc
Procedure, shortened: as §1

[21] = target: GlcNAc(b1-2)[GlcNAc(b1-6)]Man(a1-6)[GlcNAc(b1-4)][GlcNAc(b1-2)Man(a1-3)]Man(b1-4)GlcNAc(b1-4)GlcNAc
Procedure, shortened: as §1

GlcNAc(b1-3)Fuc = target: GlcNAc(b1-3)Fuc
Procedure, shortened: as §1

GlcNAc(b1-3)Gal = target: GlcNAc(b1-3)Gal
Procedure, shortened: as §1

[22] = target: GlcNAc(b1-3)Gal(b1-3)GalNAc
Procedure, shortened: as §1

GlcNAc(b1-3)Gal(b1-4)Glc = target: GlcNAc(b1-3)Gal(b1-4)Glc
Procedure, shortened: as §1

[23] = target: GlcNAc(b1-3)Gal(b1-4)GlcNAc
Procedure, shortened: as §1

[24] = target: GlcNAc(b1-3)Gal(b1-4)GlcNAc(b1-2)Man(a1-3)[GlcNAc(b1-3)Gal(b1-4)GlcNAc(b1-2)Man(a1-6)]Man(b1-4)GlcNAc(b1-4)GlcNAc
Procedure, shortened: as §1

[25] = target: GlcNAc(b1-3)Gal(b1-4)GlcNAc(b1-2)Man(a1-3)[GlcNAc(b1-3)Gal(b1-4)GlcNAc(b1-2)Man(a1-6)]Man(b1-4)GlcNAc(b1-4)[Fuc(a1-6)]GlcNAc
Procedure, shortened: as §1

[26] = target: GlcNAc(b1-3)Gal(b1-4)GlcNAc(b1-2)[GlcNAc(b1-3)Gal(b1-4)GlcNAc(b1-6)]Man(a1-6)[GlcNAc(b1-3)Gal(b1-4)GlcNAc(b1-2)Man(a1-3)]Man(b1-4)GlcNAc(b1-4)GlcNAc
Procedure, shortened: as §1

[27] = target: GlcNAc(b1-3)Gal(b1-4)GlcNAc(b1-3)Gal(b1-4)GlcNAc
Procedure, shortened: as §1

[28] = target: GlcNAc(b1-3)Gal(b1-4)GlcNAc(b1-3)Gal(b1-4)GlcNAc(b1-2)Man(a1-3)[GlcNAc(b1-3)Gal(b1-4)GlcNAc(b1-3)Gal(b1-4)GlcNAc(b1-2)Man(a1-6)]Man(b1-4)GlcNAc(b1-4)GlcNAc
Procedure, shortened: as §1

[29] = target: GlcNAc(b1-3)Gal(b1-4)GlcNAc(b1-3)Gal(b1-4)GlcNAc(b1-2)Man(a1-3)[GlcNAc(b1-3)Gal(b1-4)GlcNAc(b1-3)Gal(b1-4)GlcNAc(b1-2)Man(a1-6)]Man(b1-4)GlcNAc(b1-4)[Fuc(a1-6)]GlcNAc
Procedure, shortened: as §1

[30] = target: GlcNAc(b1-3)Gal(b1-4)GlcNAc(b1-3)Gal(b1-4)GlcNAc(b1-2)[GlcNAc(b1-3)Gal(b1-4)GlcNAc(b1-3)Gal(b1-4)GlcNAc(b1-6)]Man(a1-6)[GlcNAc(b1-3)Gal(b1-4)GlcNAc(b1-3)Gal(b1-4)GlcNAc(b1-2)Man(a1-3)]Man(b1-4)GlcNAc(b1-4)[Fuc(a1-6)]GlcNAc
Procedure, shortened: as §1

[31] = target: GlcNAc(b1-3)Gal(b1-4)GlcNAc(b1-3)Gal(b1-4)GlcNAc(b1-3)Gal(b1-4)GlcNAc(b1-2)Man(a1-3)[GlcNAc(b1-3)Gal(b1-4)GlcNAc(b1-3)Gal(b1-4)GlcNAc(b1-3)Gal(b1-4)GlcNAc(b1-2)Man(a1-6)]Man(b1-4)GlcNAc(b1-4)GlcNAc
Procedure, shortened: as §1

[32] = target: GlcNAc(b1-3)Gal(b1-4)GlcNAc(b1-3)Gal(b1-4)GlcNAc(b1-3)Gal(b1-4)GlcNAc(b1-2)Man(a1-3)[GlcNAc(b1-3)Gal(b1-4)GlcNAc(b1-3)Gal(b1-4)GlcNAc(b1-3)Gal(b1-4)GlcNAc(b1-2)Man(a1-6)]Man(b1-4)GlcNAc(b1-4)[Fuc(a1-6)]GlcNAc
Procedure, shortened: as §1

[33] = target: GlcNAc(b1-3)Gal(b1-4)GlcNAc(b1-3)Gal(b1-4)GlcNAc(b1-3)Gal(b1-4)GlcNAc(b1-2)[GlcNAc(b1-3)Gal(b1-4)GlcNAc(b1-3)Gal(b1-4)GlcNAc(b1-3)Gal(b1-4)GlcNAc(b1-6)]Man(a1-6)[GlcNAc(b1-3)Gal(b1-4)GlcNAc(b1-3)Gal(b1-4)GlcNAc(b1-3)Gal(b1-4)GlcNAc(b1-2)Man(a1-3)]Man(b1-4)GlcNAc(b1-4)[Fuc(a1-6)]GlcNAc
Procedure, shortened: as §1

[34] = target: GlcNAc(b1-3)Gal(b1-4)GlcNAc(b1-3)Gal(b1-4)GlcNAc(b1-3)Gal(b1-4)GlcNAc(b1-3)Gal(b1-4)GlcNAc(b1-2)Man(a1-3)[GlcNAc(b1-3)Gal(b1-4)GlcNAc(b1-3)Gal(b1-4)GlcNAc(b1-3)Gal(b1-4)GlcNAc(b1-3)Gal(b1-4)GlcNAc(b1-2)Man(a1-6)]Man(b1-4)GlcNAc(b1-4)GlcNAc
Procedure, shortened: as §1

[35] = target: GlcNAc(b1-3)Gal(b1-4)GlcNAc(b1-3)Gal(b1-4)GlcNAc(b1-3)Gal(b1-4)GlcNAc(b1-3)Gal(b1-4)GlcNAc(b1-2)Man(a1-3)[GlcNAc(b1-3)Gal(b1-4)GlcNAc(b1-3)Gal(b1-4)GlcNAc(b1-3)Gal(b1-4)GlcNAc(b1-3)Gal(b1-4)GlcNAc(b1-2)Man(a1-6)]Man(b1-4)GlcNAc(b1-4)[Fuc(a1-6)]GlcNAc
Procedure, shortened: as §1

B1: PX9961A-pdi-456-24-456 (Parabacteroides distasonis) (protein)
chain: KTSSTQLPTIDAISSVADLTNAVNGVYEQQATEVGSYGAEFTLLADLRSGDFQSISTVNHAGPMYRYQTGKNDEMVYSFYKLFYNSLARLNNVLAAAENLEGADVDILKGELYAMRALYHFDLARVFAKLPSTTDMNDLGIVLSTEVYPTDYIGTRATLQQTYDQILKDIETALPLLSKDKQTGHINYWGALAIRARAYLYLEKNKEALADCKEIIASSPYKLYTRDEYIGAWDKEGTNEAIFEILVTPNYNAQRNSIGYFTHASGYGECAATESFLEELAKHPGDIRTELFAKETDNGYDGTYPQKYKGRDGQIYVNNPKVVRLSEVYLIAAEAALKAGDTSAAAGYMNTLRKNRIENYTDVASITLDDILLERRLELFTEGHTAWDAWRNGKSVNNKFVGEVKPGDYRTIMAIPIGEITVSRGQLIQNPGY
- glycan array binding signal (z-score) [1]: -0.438
- glycan array binding signal (z-score) [2]: -0.059
- glycan array binding signal (z-score) [3]: 0.337
- glycan array binding signal (z-score) [4]: -0.469
- glycan array binding signal (z-score) [5]: 0.098
- glycan array binding signal (z-score) [6]: -0.127
- glycan array binding signal (z-score) [7]: 0.299
- glycan array binding signal (z-score) [8]: 1.26
- glycan array binding signal (z-score) [9]: 0.156
- glycan array binding signal (z-score) [10]: -0.448
- glycan array binding signal (z-score) [11]: -0.145
- glycan array binding signal (z-score) [12]: 0.468
- glycan array binding signal (z-score) [13]: -0.42
- glycan array binding signal (z-score) [14]: -0.51
- glycan array binding signal (z-score) [15]: -0.792
- glycan array binding signal (z-score) [16]: -0.503
- glycan array binding signal (z-score) [17]: -0.235
- glycan array binding signal (z-score) [18]: -0.489
- glycan array binding signal (z-score) [19]: -0.448
- glycan array binding signal (z-score) [20]: -0.141
- glycan array binding signal (z-score) [21]: -0.255
- glycan array binding signal (z-score) (GlcNAc(b1-3)Fuc): -0.078
- glycan array binding signal (z-score) (GlcNAc(b1-3)Gal): -0.469
- glycan array binding signal (z-score) [22]: -0.117
- glycan array binding signal (z-score) (GlcNAc(b1-3)Gal(b1-4)Glc): -0.21
- glycan array binding signal (z-score) [23]: -0.402
- glycan array binding signal (z-score) [24]: -0.047
- glycan array binding signal (z-score) [25]: 0.319
- glycan array binding signal (z-score) [26]: 0.033
- glycan array binding signal (z-score) [27]: 0.39
- glycan array binding signal (z-score) [28]: 0.444
- glycan array binding signal (z-score) [29]: -0.098
- glycan array binding signal (z-score) [30]: 0.465
- glycan array binding signal (z-score) [31]: 0.056
- glycan array binding signal (z-score) [32]: 0.199
- glycan array binding signal (z-score) [33]: 0.351
- glycan array binding signal (z-score) [34]: 0.063
- glycan array binding signal (z-score) [35]: 2.18
